Data on 108 compounds can be found in PubChem BioAssay AID434955 (Southern Research Specialized Biocontainment Screening …, 2010).

Structures are written as SMILES. The list shows a part of the results. The main result of the screen is listed elsewhere. These columns were measured beside it and carry no call. Most of these compounds were active or inconclusive in the main read-out, so they are no random draw.

A short description of the assay: beta-lactam sensitization of Mtb H37Rv, H37Rv (AID 434955).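 Also: growth measured after seven days incubation then overnight dye step; 0% = bacteria only wells and 100% = bacteria with antibiotic.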 As to conditions: M. tuberculosis H37Rv growth with meropenem, percent inhibition; measured here: primary screen without meropenem; at 25 µM.
The inhibition is the drop in the measured response relative to a control, in per cent. For `CCCC(=O)N1CCN(c2ccc(NC(=S)NC(=O)CC)cc2)CC1`, the inhibition worked out at 35.5%.

For `CCOc1ccc(S(=O)(=O)Nc2cccc(OC)c2)cc1`, the inhibition was -8.91%.

In the case of `O=S(=O)(c1cccc(S(=O)(=O)N2CCOCC2)c1)N1CCCCC1`, the inhibition was determined as 4.14%.

In the case of `O=C(COc1ccc(Cl)cc1)N1CCN(S(=O)(=O)c2ccccc2)CC1`, the inhibition was -0.71%.

In the case of `C#CCOc1c(Cl)cc(/C=N/NC(N)=S)cc1OCC`, the inhibition worked out at 34.8%.

With `Cc1nn(C)c(C(=O)N/N=C/c2cccc(Oc3ccccc3)c2)c1Br`, the inhibition came to 10.6%.

On to `CC(C)(CNC(=O)CO/N=C1/C=C2CCC3C(C(O)C[C@@]4(C)C3CC[C@]4(O)C(=O)CO)[C@@]2(C)CC1)C(O)C(=O)O` (stereo partly drawn), for which the inhibition came out at 6.86%.

Consider `NC(=S)N/N=C/c1cccc(/C=N/NC(N)=S)c1`, for which the inhibition amounted to 19.4%.

Turning to `COc1ccc(OCC(=O)N/N=C(\C)CC(=O)Nc2ccc(NC(C)=O)cc2)cc1`, the inhibition was -2.9%.

Consider `OCCNCCCCOc1ccc(OCc2ccccc2)cc1`, for which the inhibition is -10.5%.

Consider `O=S(=O)(c1cccc2cccnc12)N1CCCCC1`, for which the inhibition was 8.7%.

Take `CC(=O)Cc1nsc(NC(=O)c2ccc(-c3ccccc3Cl)o2)n1`: the inhibition is 0.08%.

With `COc1ccc(/C=N/NC(N)=S)cc1OC(=O)c1cccc2ccccc12`, the inhibition is 83%.

Turning to `CCc1cc(=O)oc2c(CN3CCN(C)CC3)c(O)c(Cl)cc12`, the inhibition is -2.21%.

In the case of `CCc1ccc(-c2cc(C(F)(F)F)n3nc(C(=O)Nc4c(C)nn(Cc5ccccc5C)c4C)cc3n2)s1`, the inhibition turned out to be 6.94%.

Turning to `COC(=O)C1CCN(C(=O)c2ccc3nc(-c4cccc(OC)c4)oc3c2)CC1`, the inhibition came to 7.04%.

As for `Cc1ccc2c(c1)NC(=O)C(CC(=O)NCCN(CC(C)C)CC(C)C)O2` (stereo not drawn), the inhibition was -0.35%.

In the case of `O=C(c1ccc(OC2CCN(Cc3ccccc3C(F)(F)F)CC2)cc1)N1CCCCC1`, the inhibition worked out at 95.6%.

On to `O=C1OC(Nc2ncccn2)c2ccccc21` (stereo not drawn), for which the inhibition was 2.35%.

Regarding `CN(c1ccccc1)S(=O)(=O)c1ccc(NC(=O)C2CC2)cc1`, the inhibition was -0.86%.

Turning to `Cc1cccc2c(C(=O)n3cccn3)cc(-c3ccccc3Cl)nc12`, the inhibition amounted to 26.7%.

Take `O=C(Nc1ccc(Oc2ccccc2)nc1)C1CCN(Cc2cccc(F)c2)CC1`: the inhibition is -0.55%.

Take `Cc1nc(CN(C)C(=O)CC2C(=O)NCCN2Cc2ccc(F)cc2)cs1` (stereo not drawn): the inhibition was found to be 1.89%.

`COCCNc1oc(-c2ccco2)nc1S(=O)(=O)c1ccccc1`: the inhibition was 1.12%.

As for `CC(C)Cc1ccc(CN2CCCC(NC(=O)CCn3cnnn3)C2)cc1` (stereo not drawn), the inhibition is -2.5%.

Consider `O=C(c1cc(Br)ccc1Cl)N1CCC2(CC1)OCCO2`, for which the inhibition is -3.36%.

For `CSc1ncccc1C(=O)Nc1cc(C)ccn1`, the inhibition was -4.81%.

On to `C/C(=N\Nc1cc(-c2ccccc2)nc(-c2ccc(Br)cc2)n1)c1cccc(N)c1`, for which the inhibition was 99.4%.

Regarding `CC1CN(C(=O)CCC(=O)NC2CCCCC2)c2ccccc2S1` (stereo not drawn), the inhibition was -7.63%.

Consider `CCc1ccc(/C=N/n2c(COc3ccccc3)n[nH]c2=S)cc1`, for which the inhibition turned out to be 9.78%.

Take `S=C(Nc1ccccc1Cl)N1CCCC(c2ccccc2)=N1`: the inhibition came to 19.1%.

Turning to `CCCN1C(=O)/C(=c2\s/c(=C3\C=Cc4ccccc4N3CC)c(=O)n2-c2ccccc2)SC1=S`, the inhibition is 1.19%.

Turning to `COc1ccc(CN(C)C(=O)c2cc(S(=O)(=O)Nc3ccccc3F)ccc2C)c(OC)c1`, the inhibition was 4.27%.

`O=C(CSc1nnc(CNC(=O)c2cccc(C(F)(F)F)c2)o1)NC1CCCCC1`: the inhibition turned out to be 7.24%.

As for `Cc1ccc(S(=O)(=O)N2CCN(C(=O)COc3ccc(-c4nnco4)cc3)CC2)cc1`, the inhibition was -1.76%.

With `CC1CCCN(c2c([N+](=O)[O-])c(=O)oc3ccccc23)C1` (stereo not drawn), the inhibition came to 2.16%.

`CCCn1cc(S(=O)(=O)c2ccc(F)cc2)c(=O)c2cc(OCC)ccc21`: the inhibition is 4.19%.

With `Cc1cccc(-c2cc(C(=O)Nc3c(C)n(C)n(-c4ccccc4)c3=O)c3ccccc3n2)c1`, the inhibition is 2.18%.

As to `C1=C(CCNc2nnnn2-c2ccccc2)CCCC1`, the inhibition was determined as 1.02%.

Regarding `O=C(Nc1ccc(F)cc1)c1oc2ccccc2c1NC(=O)C1CC1`, the inhibition was found to be 5.73%.

In the case of `CC(C)(C)c1ccc(OCc2ccc(C(=O)N/N=C3\CC4CC=CC34)cc2)cc1` (stereo not drawn), the inhibition turned out to be 3.28%.

As to `Cc1cccc(NC(=O)C(C)SCc2nc3sc(C)c(C)c3c(=O)[nH]2)n1` (stereo not drawn), the inhibition was determined as 0.16%.

As for `Cc1ccc(Cn2c(C(C)Nc3nc(-c4ccc(Cl)cc4)cs3)nc3cc(C(=O)NCCCO)ccc32)cc1` (stereo not drawn), the inhibition is -0.2%.

`CCOC(=O)c1[nH]c2ccccc2c1NC(=O)c1nonc1C`: the inhibition was -4.16%.

Regarding `Cc1ccc(C(=O)COC(=O)c2cccc([N+](=O)[O-])c2)s1`, the inhibition amounted to 61%.

Regarding `CCNS(=O)(=O)c1ccc(Br)c(OC)c1`, the inhibition was -6.46%.

`COc1ccccc1NC(=S)NC(=O)CCc1ccccc1`: the inhibition was found to be 45.8%.

On to `CC(=O)c1c(C)[nH]c(C(=O)CN2C(=O)NC(C)(c3ccc4c(c3)OCO4)C2=O)c1C` (stereo not drawn), for which the inhibition was -5.94%.

In the case of `O=C(Nc1cccc2ccccc12)N1CCCN(c2c(Cl)cncc2Cl)CC1`, the inhibition worked out at 11.7%.

For the compound `CCOC(=O)c1sc(NC(=O)CN2CCCC2)c(C(=O)OCC)c1C`, the inhibition was found to be 8.02%.

For `O=C(Nc1cccc(Br)c1)c1cccc(OC(=S)N2CCOCC2)c1`, the inhibition is 10.4%.

Take `O=C(COc1ccccc1[N+](=O)[O-])N1CCN(C(=O)c2ccco2)CC1`: the inhibition is 0.04%.

For the compound `Cc1cc2ncc(-c3ncc(C(F)(F)F)cc3Cl)cn2n1`, the inhibition stood at 0.63%.

With `COC(=O)c1cccc(S(=O)(=O)N2CCOCC2)c1`, the inhibition is 2.17%.

Regarding `O=C(CCNc1ccccc1)c1cccc([N+](=O)[O-])c1`, the inhibition came to 23.4%.

Regarding `CC(/C=N/Nc1nncc(=O)[nH]1)=C\c1ccccc1`, the inhibition was -3.9%.

For `S=c1nc(-c2ccccc2)[nH]n1-c1ccccc1`, the inhibition was 3.33%.

Regarding `CC(C)(C(=O)c1ccccc1)/[N+]([O-])=C/c1ccccc1F`, the inhibition came out at 5.91%.

Consider `CN1CCN(C(=O)COCc2cc(-c3ccc4c(c3)OCO4)on2)CC1`, for which the inhibition is -0.75%.

With `CC(C)NC(=O)C(=O)NNC(=O)C12CC3CC(CC(C3)C1)C2`, the inhibition is 15.8%.

Take `Cc1cccc(CC(C)NC(=O)c2cc(COc3ccc(C)c(C)c3)on2)n1` (stereo not drawn): the inhibition was 14.2%.

Take `Cc1cc(C)c(CN2CCC(n3nccc3NC(=O)c3ccccc3Cl)CC2)cc1C`: the inhibition amounted to 9.81%.

For the compound `COc1ccc(C2CC(c3ccccc3)Nc3ncnn32)cc1` (stereo not drawn), the inhibition is -9.78%.

As to `O=C(CSCC(=O)Nc1ccccc1)N/N=C/c1c(O)ccc2ccccc12`, the inhibition is 44.4%.

Turning to `CC(C)n1cc(CN2CCCC(CNS(=O)(=O)c3cccc4cccnc34)C2)cn1` (stereo not drawn), the inhibition turned out to be 5.35%.

As for `O=C(CN1C(=O)c2cccnc2Oc2ccc(Cl)cc21)N1CCCC1`, the inhibition stood at 3.92%.

For `COc1ccc(NS(=O)(=O)c2cn(C)nc2C)cc1`, the inhibition is 3.65%.

Turning to `O=C(c1cc(COc2c(F)cccc2F)on1)N1CCCCCC1`, the inhibition was -0.9%.

For the compound `CCc1ccc2c(c1)c1nnc(NN)nc1n2CC`, the inhibition is -0.03%.

With `COC(=O)CSc1nnc(-c2cnccn2)n1C`, the inhibition turned out to be 4.69%.

`CCCC(C)NC(=O)c1ccc(OCc2ccc(Cl)cc2)c(OC)c1` (stereo not drawn): the inhibition was 50.1%.

`Nc1nc(Sc2ncccc2[N+](=O)[O-])n[nH]1`: the inhibition worked out at 3.27%.

For the compound `O=C(NCC1(O)CCCCC1)C1CCC(=O)N(Cc2ccccc2F)C1` (stereo not drawn), the inhibition was -0.02%.

Take `Cc1onc(-c2ccccc2)c1C(=O)NC(=S)NNC(=O)c1ccc(O)cc1O`: the inhibition stood at 10.1%.

Take `CCOC(=O)c1ccc(NC(=O)NCCc2ccccc2OC)cc1`: the inhibition was 4.48%.

`O=C(CN1CCCC1)Nc1sc2c(c1C(=O)Nc1ccc(Br)cc1)CCC2`: the inhibition was -0.27%.

In the case of `CN1CCN(c2ccc(NC(=O)c3ccc(-c4ccc(Cl)cc4)o3)cc2)CC1`, the inhibition is 99.6%.

`Cc1cccc2c1nc(-c1ccccc1)n1nnnc21`: the inhibition was 3.95%.

For the compound `CCOC(=O)c1sc(NC(=O)CSc2n[nH]c(CC(C)C)n2)nc1C`, the inhibition was determined as 15.1%.

In the case of `CCOC(=O)c1ccccc1NC(=O)COC(=O)CCC(=O)N1CCOCC1`, the inhibition amounted to 4.76%.

Take `CC(=O)c1cccc(CN2CCC(n3nccc3NC(=O)CCCc3ccccc3)CC2)c1`: the inhibition worked out at 0.9%.

Regarding `CCN(Cc1ccccc1)S(=O)(=O)c1cc2[nH]c(=O)c(=O)[nH]c2cc1C`, the inhibition is -7.55%.

For `Cc1ccc(CNS(=O)(=O)c2c(C)[nH]c(C)c2C(=O)N2CCCCC2)cc1`, the inhibition was determined as 2.51%.

For `O=C(/C(=C/c1ccc(Cl)cc1)c1nc2ccccc2[nH]1)c1cccs1`, the inhibition stood at 90.9%.

`CCn1c(CN2CCOCC2)nnc1SCC(=O)Nc1ccccc1C`: the inhibition came out at 0.37%.

Consider `COc1ccc(/C(N)=N/OC(=O)Cc2cccs2)cc1`, for which the inhibition worked out at 1.46%.

`COc1ccc(OCc2cc(C(=O)NC(C)Cn3cncn3)no2)c(Cl)c1` (stereo not drawn): the inhibition is -2.57%.

`CC(=O)N(Cc1cc(=O)[nH]c2ccccc12)c1ccccc1C`: the inhibition was -8.87%.

For the compound `CN(CC(=O)N1CCN(Cc2ccccc2)CC1)S(=O)(=O)c1ccc(Br)cc1`, the inhibition turned out to be 18%.

For the compound `COc1ccc(OC)c2nc(-c3ccc4c(c3)OCO4)ccc12`, the inhibition was determined as 42.6%.

For `O=C(Nc1ccccc1)C1CCN(C(=O)c2ccc(Br)cc2)CC1`, the inhibition is 0.23%.

On to `Cc1cccc(C)c1NC1=NC2(CCCCC2)N=C(N)N1`, for which the inhibition is -3.89%.

Regarding `COc1ccccc1NC(=O)NNC(=O)CCN1CCOCC1`, the inhibition is -2.48%.

On to `CCOc1ccc(-c2n[nH]c(=S)n2/N=C/c2cc3c(cc2[N+](=O)[O-])OCO3)cc1`, for which the inhibition is -2.46%.

Consider `COc1ccc(N2C(=O)CC(SCCc3nc4ccccc4[nH]3)C2=O)cc1` (stereo not drawn), for which the inhibition came out at 1.13%.

`O=C(Cn1c(SCc2ccccc2)nc2ccccc21)N1CCOCC1`: the inhibition was found to be 2.43%.

For the compound `Cc1ccccc1OCC(=O)NNC(=S)NC(=O)c1ccco1`, the inhibition was 98%.

On to `Cc1cc(C)c(S(=O)(=O)Nc2cccnc2)c(C)c1`, for which the inhibition was 6.31%.

In the case of `NC(=O)c1ccc(-c2ncc(-c3ccccc3)o2)cc1`, the inhibition stood at 51.1%.

On to `O=C(O)CC1OCC=C2CN3CCC45C6=CC(=O)C(=O)C([N+](=O)[O-])=C6NC4C1C2CC35` (stereo not drawn), for which the inhibition was found to be 7.03%.

As to `Cc1ccc(S(=O)(=O)N2CCN(Cc3cc(C(C)C)ccc3O)CC2)cc1`, the inhibition was -12.4%.

For `COc1ccc(N2C(=O)CSC2c2cccs2)cc1` (stereo not drawn), the inhibition came to 3.46%.

As to `CCOC(=O)c1[nH]c(C)c(C(=O)NCc2ccc(C)cc2)c1C`, the inhibition is -9.59%.

As for `Cc1ccccc1C(=O)Nc1ccnn1C1CCN(Cc2cnn(C)c2)CC1`, the inhibition is -3.79%.

For the compound `COc1ccc(CCn2c(SCC(=O)Nc3cc(C)on3)nc3ccccc3c2=O)cc1OC`, the inhibition came out at 9.33%.

Turning to `COc1ccc(N2C(=O)NC(=O)/C(=C/c3ccc([N+](=O)[O-])s3)C2=O)cc1`, the inhibition worked out at 100%.

Consider `CC(/C=N/NC(=O)c1cc(-c2ccncc2)nc2ccccc12)=C\c1ccco1`, for which the inhibition stood at 2.44%.

Turning to `c1ccc(C2=Nn3c(nnc3-c3cccnc3)SC2)cc1`, the inhibition is -0.67%.
